The campaign covered roughly 360,000 compounds. About 6,000 (1.7%) were called active. The inconclusive results got no clear call from the source; some entries with a clear call stand among them for comparison. Calls come from the whole dose curve; as a rule, active = well fitted cell-killing curve with a large enough effect; inconclusive = small, poorly fitted or top-dose-only effect, or effect the other way; inactive = flat fitted curve, though single readings scatter. No potency is given beside an inconclusive call; the fits are too rough.
experiment: qHTS for induction of synthetic lethality in tumor cells producing 2HG: qHTS for the HT-1080-NT fibrosarcoma cell line; conditions: HT-1080-NT fibrosarcoma viability, CellTiter-Glo ATP luminescence, 48 h; activity, negative = less viability: at 46.1 µM (top of the series) unless noted;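 note: NT is the 2HG producing partner of a matched IDH1 knockdown line; nearly all actives have a fitted effect of over 55% in size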;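 for activity, negative = less viability: 0% = DMSO-treated cells and -100% = media-only wells without cells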
Outline: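 750 cells/well, RPMI + 5% FBS; 2 h settle, compound pin-transfer, 48 h at 37 degrees C. CellTiter-Glo 10 min RT, luminescence. Normalized to DMSO and media-only wells.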
Potency is the fitted concentration of half-maximal effect; tags give direction and shape of the fitted curve.

| Compound | Potency | activity, negative = less viability |
| --- | --- | --- |
| Cc1cc(C)c2nc(C)cc(Nc3ccc(C(=O)N(C)C)cc3)c2c1 | inactive | – |
| COC(=O)c1ccc(C2c3[nH]c4ccccc4c3C[C@H]3C(=O)N(C)CC(=O)N23)cc1 (stereo not given in full) | inconclusive [cytotoxic, partial curve] | – |
| O=C(NC1CCCCC1)C(c1ccncc1)N(Cc1ccccc1)C(=O)c1ccc(-c2ccccc2)[nH]1 (stereo not given) | inconclusive [cytotoxic, single point] | – |
| Fc1ccccc1/C=N/NC(=S)Nc1ccc(Cl)cc1Cl | active: 5.17 µM | – |
| CC(C)c1ccc(NS(=O)(=O)c2ccc(-n3cccn3)cc2)cc1 | inconclusive [cytotoxic, single point] | – |
| COc1ccc(C(C(=O)NC2CCCCC2)N(C(=O)CCl)c2ccc(C)cc2)cc1 (stereo not given) | active: 0.82 µM | – |
| Cc1cccc(CN2[C@H](CO)C=CS2(=O)=O)c1 | inactive | – |
| COC(=O)C(C(=O)OC)C(C[N+](=O)[O-])c1ccc(OC)c(OC)c1 (stereo not given) | inactive | – |
| CCCOc1ccc(CCCN=C(N)N)cc1Cl | inconclusive [cytotoxic, single point] | – |
| COc1ccc(NC(=O)COC(=O)C2CC2)c(OC)c1 | inactive | – |
| CN1CCN(c2ccc(CNC(=O)C3Cc4c(-c5cccc(F)c5)ccnc4O3)cc2)CC1 (stereo not given) | inconclusive [cytotoxic, single point] | – |
| CC(=O)C1=C(Nc2ccccc2)CC(C)(O)C(C(C)=O)C1c1ccccc1 (stereo not given) | inactive | – |
| O=[N+]([O-])c1ccc([N+](=O)[O-])c(Nc2ccc(N3CCOCC3)cc2)c1 | inactive | – |
| NS(=O)(=O)c1ccc(Nc2nc(-c3ccc(F)cc3)cs2)cc1 | – | inconclusive: -51.4% |
| CCOC(=O)c1cc2sc(C)cc2n1CC(=O)NCc1ccc(F)cc1 | inconclusive [cytotoxic, single point] | – |
| CC1=C(C(=O)N2CCCCCC2)CC(CC(=O)NCCCCc2ccccc2)C(=O)N1CCC1=CCCCC1 (stereo not given) | inconclusive [cytotoxic, single point] | – |
| CC(C)C1C(=O)N(Cc2cn(CC3CCCCC3)nn2)CCS(=O)(=O)N1Cc1ccc(-c2ccc(F)cc2)cc1 (stereo not given) | inconclusive [cytotoxic, single point] | – |
| Cc1ccc(S(=O)(=O)N2CCCC2C(=O)NCCc2ccccc2)cc1 (stereo not given) | inactive | – |
| Cc1cccc(-c2nnc(-c3cccc(NC(=O)Cc4cccs4)c3)o2)c1 | inconclusive [cytotoxic, single point] | – |
| Cc1ccc2nc(CN(C)C(=O)[C@H]3O[C@@H](n4ccc(N)nc4=O)[C@H](O)[C@@H]3O)[nH]c2c1 | inactive | – |
